Test results taken from PMC9008427, “Identification of a STIM1 Splicing Variant that Promotes Glioblastoma Growth” (Advanced Science, 2022).

Target: the molecule itself
Assay: SEC; purified recombinant protein on a Superose 6 10/300 GL column, Bio-Rad Gel Filtration Standard as size markers; fractions checked by SDS-PAGE

B1: (His)6-STIM1([…]) (domain or fragment)
chain: not shown
notes: cytoplasmic domain of human STIM1, […], cloned into pPro-EX-HTb between BamHI and XhoI; also called recombinant STIM1-CT; STIM1-CT; source: E. coli BL21 (DE3), purified (Ni-NTA, gel filtration on Superose 6)
B1: binds.
